The results in this text go back to publication PMC10266776.

By UniProt entry, the sequences of proteins in these tests, tags left out. Where a name states a change or a piece, a line headed by the entry shows the natural chain unless it says otherwise. Chains listed by the source or under a name are the forms on record and can include a tag or linker.
UniProt P62993: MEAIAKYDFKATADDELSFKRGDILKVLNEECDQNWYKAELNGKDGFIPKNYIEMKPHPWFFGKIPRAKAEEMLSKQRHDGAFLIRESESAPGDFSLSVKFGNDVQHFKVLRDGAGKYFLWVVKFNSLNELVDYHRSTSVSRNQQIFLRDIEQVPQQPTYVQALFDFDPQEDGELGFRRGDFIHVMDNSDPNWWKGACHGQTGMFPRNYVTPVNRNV
UniProt Q92918: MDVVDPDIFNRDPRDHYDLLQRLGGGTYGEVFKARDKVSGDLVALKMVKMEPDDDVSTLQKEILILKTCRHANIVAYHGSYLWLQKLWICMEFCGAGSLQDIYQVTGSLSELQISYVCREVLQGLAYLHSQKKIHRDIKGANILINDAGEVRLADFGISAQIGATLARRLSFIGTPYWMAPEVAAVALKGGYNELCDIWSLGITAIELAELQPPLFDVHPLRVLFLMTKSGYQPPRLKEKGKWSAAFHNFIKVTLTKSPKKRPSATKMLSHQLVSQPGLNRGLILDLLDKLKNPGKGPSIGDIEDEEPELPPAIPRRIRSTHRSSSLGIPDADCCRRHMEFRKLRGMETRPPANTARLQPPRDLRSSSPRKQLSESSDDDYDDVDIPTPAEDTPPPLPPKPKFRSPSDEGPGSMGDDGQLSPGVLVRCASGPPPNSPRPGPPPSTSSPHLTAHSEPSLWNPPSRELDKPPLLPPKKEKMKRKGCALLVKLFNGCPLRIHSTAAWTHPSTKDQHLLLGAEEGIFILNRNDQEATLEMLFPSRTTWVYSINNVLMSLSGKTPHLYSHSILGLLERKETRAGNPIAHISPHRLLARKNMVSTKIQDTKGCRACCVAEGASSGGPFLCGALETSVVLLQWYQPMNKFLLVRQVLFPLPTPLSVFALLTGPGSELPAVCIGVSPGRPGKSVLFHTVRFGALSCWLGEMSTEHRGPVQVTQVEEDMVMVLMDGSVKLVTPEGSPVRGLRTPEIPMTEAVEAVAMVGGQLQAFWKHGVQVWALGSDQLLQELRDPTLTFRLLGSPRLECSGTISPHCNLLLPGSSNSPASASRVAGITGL
M46, kinase-dead mutant of HPK1, transgene expressed in the pancreata of M46 Bac-cre (MC) mice (Q92918, form named): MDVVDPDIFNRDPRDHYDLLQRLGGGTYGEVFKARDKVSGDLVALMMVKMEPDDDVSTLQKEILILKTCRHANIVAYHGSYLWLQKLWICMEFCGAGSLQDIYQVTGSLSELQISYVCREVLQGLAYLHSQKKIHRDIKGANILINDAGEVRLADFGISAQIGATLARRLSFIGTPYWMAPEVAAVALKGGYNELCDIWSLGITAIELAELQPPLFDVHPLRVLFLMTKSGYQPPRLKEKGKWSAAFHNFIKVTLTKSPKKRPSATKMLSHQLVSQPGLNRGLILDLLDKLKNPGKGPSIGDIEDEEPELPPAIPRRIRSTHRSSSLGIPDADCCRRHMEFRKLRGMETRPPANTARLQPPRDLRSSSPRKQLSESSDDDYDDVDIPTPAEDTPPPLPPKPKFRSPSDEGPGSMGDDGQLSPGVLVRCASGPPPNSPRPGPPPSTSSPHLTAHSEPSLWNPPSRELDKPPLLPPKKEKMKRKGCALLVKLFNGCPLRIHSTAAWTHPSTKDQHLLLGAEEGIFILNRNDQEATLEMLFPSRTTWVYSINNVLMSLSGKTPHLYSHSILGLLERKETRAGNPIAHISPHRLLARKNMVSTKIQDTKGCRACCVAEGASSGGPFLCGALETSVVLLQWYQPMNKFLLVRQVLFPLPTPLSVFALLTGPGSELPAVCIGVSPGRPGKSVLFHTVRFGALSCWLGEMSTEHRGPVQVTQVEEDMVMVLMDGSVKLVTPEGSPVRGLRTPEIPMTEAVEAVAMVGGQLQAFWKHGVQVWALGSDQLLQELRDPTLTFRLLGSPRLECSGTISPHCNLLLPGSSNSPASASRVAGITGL

These are yes or no findings as the source states them, for the method shown. For some of these results: In cells and extracts the contact can be indirect. Some results given as binding are weak or reduced against the parent protein; the word gives no strength. For some of these results: Where a sequence is shown, tags or fusion partners need not be part of it.

For experiment [1], the target named is T1, GST-RasGAP SH2 domain (175 to 274) (UniProt P20936).
T1 sequence: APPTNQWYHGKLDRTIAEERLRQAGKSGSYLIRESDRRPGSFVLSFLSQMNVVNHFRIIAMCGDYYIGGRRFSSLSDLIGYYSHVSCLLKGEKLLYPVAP
Description: pull-down; GST pull-down with different GST fusion proteins of RasGAP or GST alone; HPK1 detected.

For experiment [2], the target named is T2, GST-RasGAP SH2-SH3-SH2 domain (171 to 448) (UniProt P20936).
T2 sequence: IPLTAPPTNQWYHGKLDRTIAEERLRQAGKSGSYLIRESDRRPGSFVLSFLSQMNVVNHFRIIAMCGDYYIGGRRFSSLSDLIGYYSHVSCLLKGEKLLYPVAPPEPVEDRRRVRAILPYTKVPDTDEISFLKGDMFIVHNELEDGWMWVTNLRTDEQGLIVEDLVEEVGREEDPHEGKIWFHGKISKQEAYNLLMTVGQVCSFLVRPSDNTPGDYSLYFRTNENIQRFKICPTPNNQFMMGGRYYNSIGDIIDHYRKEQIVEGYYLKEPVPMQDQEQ
The description is as above.

In experiment [3] the target is T3, Endogenous RasGAP in mouse pancreata (mouse (endogenous in pancreas)) (UniProt E9PYG6).
T3 sequence: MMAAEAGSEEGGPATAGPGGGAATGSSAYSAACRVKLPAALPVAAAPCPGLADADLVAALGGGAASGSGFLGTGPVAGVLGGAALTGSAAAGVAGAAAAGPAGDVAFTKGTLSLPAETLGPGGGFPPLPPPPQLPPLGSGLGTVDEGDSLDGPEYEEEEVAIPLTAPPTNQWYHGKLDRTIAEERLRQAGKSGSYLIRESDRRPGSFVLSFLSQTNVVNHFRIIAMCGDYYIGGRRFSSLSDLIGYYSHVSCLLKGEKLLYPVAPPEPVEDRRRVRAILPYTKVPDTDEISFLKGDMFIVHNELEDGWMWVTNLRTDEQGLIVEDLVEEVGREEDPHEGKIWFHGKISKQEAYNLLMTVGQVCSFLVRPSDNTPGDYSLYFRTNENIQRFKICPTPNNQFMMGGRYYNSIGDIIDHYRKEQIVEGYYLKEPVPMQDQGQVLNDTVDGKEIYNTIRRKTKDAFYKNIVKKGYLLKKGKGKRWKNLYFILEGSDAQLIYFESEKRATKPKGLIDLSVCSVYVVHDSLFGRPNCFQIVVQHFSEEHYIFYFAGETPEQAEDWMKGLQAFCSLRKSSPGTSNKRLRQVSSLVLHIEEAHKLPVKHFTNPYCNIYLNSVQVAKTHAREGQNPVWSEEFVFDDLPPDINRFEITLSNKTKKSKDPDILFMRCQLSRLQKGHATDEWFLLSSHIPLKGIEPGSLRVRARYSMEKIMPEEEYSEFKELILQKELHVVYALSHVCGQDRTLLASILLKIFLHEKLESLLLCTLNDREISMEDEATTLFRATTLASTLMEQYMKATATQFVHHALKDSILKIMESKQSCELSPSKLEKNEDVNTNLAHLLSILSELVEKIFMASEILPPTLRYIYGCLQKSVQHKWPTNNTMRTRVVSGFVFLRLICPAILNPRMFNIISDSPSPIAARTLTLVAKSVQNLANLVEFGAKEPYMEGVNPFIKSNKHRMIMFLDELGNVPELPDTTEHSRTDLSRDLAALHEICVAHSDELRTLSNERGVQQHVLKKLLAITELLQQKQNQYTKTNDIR
Description: co-IP; pancreata of HC and MC mice; 500 ug of total proteins with 2 ug of antibody or normal IgG; immunoblot. (A western blot detects proteins with antibodies after separation by electrophoresis.)

Experiment [4] concerns the target T4, Ras GTPase-activating protein (RasGAP) in Panc-1/HPK1 stable cells (human (endogenous in Panc-1)) (UniProt P20936).
T4 sequence: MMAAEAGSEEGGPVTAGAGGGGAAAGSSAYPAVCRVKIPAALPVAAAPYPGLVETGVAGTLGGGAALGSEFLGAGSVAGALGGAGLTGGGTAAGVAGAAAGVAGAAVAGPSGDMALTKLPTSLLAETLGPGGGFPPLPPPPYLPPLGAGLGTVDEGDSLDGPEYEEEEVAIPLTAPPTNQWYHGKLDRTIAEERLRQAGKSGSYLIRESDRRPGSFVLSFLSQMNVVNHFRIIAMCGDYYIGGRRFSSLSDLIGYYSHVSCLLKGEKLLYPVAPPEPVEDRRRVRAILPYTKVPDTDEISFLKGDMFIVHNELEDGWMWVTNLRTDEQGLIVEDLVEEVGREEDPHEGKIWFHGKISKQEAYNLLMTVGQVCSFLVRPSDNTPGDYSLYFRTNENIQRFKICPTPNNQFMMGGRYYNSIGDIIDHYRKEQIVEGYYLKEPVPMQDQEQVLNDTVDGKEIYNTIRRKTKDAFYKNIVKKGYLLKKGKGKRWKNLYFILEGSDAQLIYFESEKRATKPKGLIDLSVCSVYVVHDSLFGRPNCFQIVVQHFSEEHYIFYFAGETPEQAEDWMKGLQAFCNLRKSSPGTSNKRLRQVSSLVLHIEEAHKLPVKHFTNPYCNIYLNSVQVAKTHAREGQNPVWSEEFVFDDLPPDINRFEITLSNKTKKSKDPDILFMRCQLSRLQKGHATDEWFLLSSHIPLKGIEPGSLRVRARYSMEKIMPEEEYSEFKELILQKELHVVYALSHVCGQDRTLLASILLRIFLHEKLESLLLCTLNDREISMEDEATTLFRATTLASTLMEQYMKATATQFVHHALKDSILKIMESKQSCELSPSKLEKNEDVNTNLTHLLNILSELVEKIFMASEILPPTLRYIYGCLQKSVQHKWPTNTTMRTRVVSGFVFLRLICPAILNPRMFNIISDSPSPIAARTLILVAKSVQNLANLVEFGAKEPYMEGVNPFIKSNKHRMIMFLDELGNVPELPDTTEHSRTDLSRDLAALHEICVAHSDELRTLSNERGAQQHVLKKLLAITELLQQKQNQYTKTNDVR
Description: co-IP; Panc-1/HPK1 stable cells (C1) treated with 2.0 uM MG132; 500 ug of total proteins with 2 ug of antibody or normal IgG; immunoblot.

For experiment [5], the target named is T4, Ras GTPase-activating protein (RasGAP) in Panc-1/HPK1 stable cells (human (endogenous in Panc-1)). Description: peptide or protein array; membrane filter arrayed with 400 antibodies (Hypromatrix) incubated overnight at 4°C with lysate of Panc-1/HPK1 stable cells treated with 2.0 uM MG132 for 16 hours; detected by HRP-conjugated anti-FLAG antibody.
The target of experiment [6] is Grb2 in Panc-1/HPK1 stable cells (human (endogenous in Panc-1)) (UniProt P62993). Described as above.

Turning to “HPK1 protein of the GST pull-down assay (from UniProt Q92918 1-833)”, the values for the binding result in experiment [1] and in experiment [2] were “no binding” and “binds”, respectively.

Turning to “HPK1 transgene expressed in the pancreata of HPK1 Bac-cre (HC) mice (from UniProt Q92918 1-833)”, the binding result in experiment [3] was “binds”.

In the case of “M46, kinase-dead mutant of HPK1, transgene expressed in the pancreata of M46 Bac-cre (MC) mice (from UniProt Q92918 1-833)”, in experiment [3], the binding entry is recorded as “binds”.

“Hematopoietic progenitor kinase 1 (HPK1), FLAG-tagged, in Panc-1/HPK1 stable cells (from UniProt Q92918 1-833)”: the binding entry in experiment [4], in experiment [5] and in experiment [6] was “binds” in each case.
